{"source": "the supplement of paper PMC5499739", "note": "The full ranking holds about 16,000 sequences; the median of “Z-score” is about -0.37, and the highest 2% start at about 3.1. Some of the results follow."}
{"system": "RBM10 RRM1-ZnF-RRM2 (GST-tagged construct)", "assay": "RNAcompete 7-mer binding Z-score; higher = stronger binding preference", "summary_of_the_method": "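GST-tagged RBM10 constructs (20 pmol) and a designed pool of 241 399 RNAs up to 41 nt (1.5 nmol) were allowed to bind for 30 min at 4°C in 1 ml Hepes pH 7.8 buffer with glutathione Sepharose beads. After four 2-min washes at 4°C, bound RNA was identified by microarray hybridisation. Enrichment was scored per heptamer motif as a one-sided Z-score across the probes containing it.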"}
{"sequence": "GGUGUUG", "RNAcompete 7-mer binding Z-score": 1.72}
{"sequence": "AGGAUAC", "RNAcompete 7-mer binding Z-score": 0.811}
{"sequence": "GAGGGGG", "RNAcompete 7-mer binding Z-score": 2.83}
{"sequence": "GCACGCU", "RNAcompete 7-mer binding Z-score": -0.566}
{"sequence": "GGGUUGA", "RNAcompete 7-mer binding Z-score": 3.53}
{"sequence": "CCACGCG", "RNAcompete 7-mer binding Z-score": -0.584}
{"sequence": "UACGACA", "RNAcompete 7-mer binding Z-score": -0.213}
{"sequence": "UAUCCCG", "RNAcompete 7-mer binding Z-score": -0.81}
{"sequence": "AUCCGGG", "RNAcompete 7-mer binding Z-score": 0.632}
{"sequence": "GCCCCGG", "RNAcompete 7-mer binding Z-score": -0.122}
{"sequence": "UGUGGUG", "RNAcompete 7-mer binding Z-score": 1.57}
{"sequence": "CUAUGCC", "RNAcompete 7-mer binding Z-score": -0.897}
{"sequence": "UAAUGCA", "RNAcompete 7-mer binding Z-score": -0.333}
{"sequence": "ACCUAGG", "RNAcompete 7-mer binding Z-score": -0.125}
{"sequence": "CUCGAUC", "RNAcompete 7-mer binding Z-score": -0.843}
{"sequence": "ACUAAAU", "RNAcompete 7-mer binding Z-score": -0.515}
{"sequence": "CCGUACA", "RNAcompete 7-mer binding Z-score": -0.661}
{"sequence": "AGCCACA", "RNAcompete 7-mer binding Z-score": -0.675}
{"sequence": "UACUGGA", "RNAcompete 7-mer binding Z-score": 0.141}
{"sequence": "CCUCGCG", "RNAcompete 7-mer binding Z-score": -0.701}
{"sequence": "GCAUUAC", "RNAcompete 7-mer binding Z-score": -0.209}
{"sequence": "AAAAGCG", "RNAcompete 7-mer binding Z-score": 0.629}
{"sequence": "AAUUCGA", "RNAcompete 7-mer binding Z-score": -0.497}
{"sequence": "GUACUGU", "RNAcompete 7-mer binding Z-score": -0.238}
{"sequence": "AGGGAGU", "RNAcompete 7-mer binding Z-score": 3.13}
{"sequence": "GGUGCUC", "RNAcompete 7-mer binding Z-score": 0.33}
{"sequence": "ACCUUAG", "RNAcompete 7-mer binding Z-score": -0.697}
{"sequence": "GCAUAUA", "RNAcompete 7-mer binding Z-score": -0.0561}
{"sequence": "GGUGCGU", "RNAcompete 7-mer binding Z-score": 1.28}
{"sequence": "UUCUAAA", "RNAcompete 7-mer binding Z-score": -0.744}
{"sequence": "GUGCAGA", "RNAcompete 7-mer binding Z-score": 0.487}
{"sequence": "GUUUUGA", "RNAcompete 7-mer binding Z-score": -0.26}
{"sequence": "GCCACUC", "RNAcompete 7-mer binding Z-score": -0.712}
{"sequence": "GUGUAUU", "RNAcompete 7-mer binding Z-score": -0.0925}
{"sequence": "UCGUGGC", "RNAcompete 7-mer binding Z-score": 0.188}
{"sequence": "AUGGUCA", "RNAcompete 7-mer binding Z-score": 1.17}
{"sequence": "CGACAUA", "RNAcompete 7-mer binding Z-score": -0.537}
{"sequence": "UGAGAGG", "RNAcompete 7-mer binding Z-score": 1.8}
{"sequence": "CACCGCG", "RNAcompete 7-mer binding Z-score": -0.147}
{"sequence": "ACCAAUC", "RNAcompete 7-mer binding Z-score": -0.675}
{"sequence": "UUUGUGC", "RNAcompete 7-mer binding Z-score": -0.73}
{"sequence": "AAGUUAU", "RNAcompete 7-mer binding Z-score": -0.38}
{"sequence": "UUUAUCU", "RNAcompete 7-mer binding Z-score": -0.715}
{"sequence": "UCAUCCG", "RNAcompete 7-mer binding Z-score": -0.613}
{"sequence": "AGUUACA", "RNAcompete 7-mer binding Z-score": -0.0197}
{"sequence": "GCUCACG", "RNAcompete 7-mer binding Z-score": -0.457}
{"sequence": "CCACUGG", "RNAcompete 7-mer binding Z-score": -0.384}
{"sequence": "AUGUGGA", "RNAcompete 7-mer binding Z-score": 2.02}
{"sequence": "GAGCGAC", "RNAcompete 7-mer binding Z-score": 0.177}
{"sequence": "ACGGGAC", "RNAcompete 7-mer binding Z-score": 2.19}
{"sequence": "UACCUCA", "RNAcompete 7-mer binding Z-score": -0.672}
{"sequence": "GCCAAUC", "RNAcompete 7-mer binding Z-score": -0.351}
{"sequence": "CUAAUAA", "RNAcompete 7-mer binding Z-score": -0.544}
{"sequence": "GGUCGCC", "RNAcompete 7-mer binding Z-score": -0.322}
{"sequence": "UAACACG", "RNAcompete 7-mer binding Z-score": -0.307}
{"sequence": "CUUAUAC", "RNAcompete 7-mer binding Z-score": -0.795}
{"sequence": "GGGUCGU", "RNAcompete 7-mer binding Z-score": 2}
{"sequence": "UGGUGGU", "RNAcompete 7-mer binding Z-score": 2.37}
{"sequence": "GCACUCC", "RNAcompete 7-mer binding Z-score": -0.602}
{"sequence": "GUUUGAU", "RNAcompete 7-mer binding Z-score": -0.326}
{"sequence": "GGCAAAA", "RNAcompete 7-mer binding Z-score": 0.964}
{"sequence": "UUAGUUG", "RNAcompete 7-mer binding Z-score": -0.249}
{"sequence": "GAAUGCC", "RNAcompete 7-mer binding Z-score": -0.311}
{"sequence": "UUACUAU", "RNAcompete 7-mer binding Z-score": -0.774}
{"sequence": "UUGAGCG", "RNAcompete 7-mer binding Z-score": 0.239}
{"sequence": "UCUGAUA", "RNAcompete 7-mer binding Z-score": -0.61}
{"sequence": "UAAUCUG", "RNAcompete 7-mer binding Z-score": -0.868}
{"sequence": "UUACUGG", "RNAcompete 7-mer binding Z-score": 0.0204}
{"sequence": "CGGACAA", "RNAcompete 7-mer binding Z-score": 0.403}
{"sequence": "GUUCGAG", "RNAcompete 7-mer binding Z-score": 0.0386}
{"sequence": "GACGUUU", "RNAcompete 7-mer binding Z-score": -0.704}
{"sequence": "UAUACUA", "RNAcompete 7-mer binding Z-score": -0.544}
{"sequence": "AUUAGAG", "RNAcompete 7-mer binding Z-score": 0.388}
{"sequence": "GAGAGCA", "RNAcompete 7-mer binding Z-score": 0.465}
{"sequence": "UAUUUCU", "RNAcompete 7-mer binding Z-score": -0.763}
{"sequence": "AUUCCCU", "RNAcompete 7-mer binding Z-score": -0.817}
{"sequence": "UCACAGU", "RNAcompete 7-mer binding Z-score": -0.329}
{"sequence": "GAUACUA", "RNAcompete 7-mer binding Z-score": -0.246}
{"sequence": "AUUGCUA", "RNAcompete 7-mer binding Z-score": -0.511}
{"sequence": "UGACAGU", "RNAcompete 7-mer binding Z-score": -0.22}
{"sequence": "CAGCUGG", "RNAcompete 7-mer binding Z-score": 0.275}
{"sequence": "GAGCGAG", "RNAcompete 7-mer binding Z-score": 3.3}
{"sequence": "CAGGAUG", "RNAcompete 7-mer binding Z-score": 1.64}
{"sequence": "UAUCAGG", "RNAcompete 7-mer binding Z-score": 0.658}
{"sequence": "CGGCGUA", "RNAcompete 7-mer binding Z-score": 0.148}
{"sequence": "UGUGCCG", "RNAcompete 7-mer binding Z-score": -0.344}
{"sequence": "GCUCUCU", "RNAcompete 7-mer binding Z-score": -0.701}
{"sequence": "CGAUCUU", "RNAcompete 7-mer binding Z-score": -0.85}
{"sequence": "UAAAGUA", "RNAcompete 7-mer binding Z-score": -0.209}
{"sequence": "GUGCCUU", "RNAcompete 7-mer binding Z-score": -0.661}
{"sequence": "CAGGCGU", "RNAcompete 7-mer binding Z-score": 0.931}
{"sequence": "AUAGAUU", "RNAcompete 7-mer binding Z-score": -0.205}
{"sequence": "UGUGCAA", "RNAcompete 7-mer binding Z-score": -0.078}
{"sequence": "CACCUCA", "RNAcompete 7-mer binding Z-score": -0.664}
{"sequence": "AUGUGCU", "RNAcompete 7-mer binding Z-score": -0.522}
{"sequence": "UAUCUUC", "RNAcompete 7-mer binding Z-score": -0.632}
{"sequence": "GCCCCAC", "RNAcompete 7-mer binding Z-score": -0.646}
{"sequence": "ACCUGUG", "RNAcompete 7-mer binding Z-score": -0.668}
{"sequence": "UAGUAAC", "RNAcompete 7-mer binding Z-score": -0.38}
{"sequence": "GCUUUUA", "RNAcompete 7-mer binding Z-score": -0.723}
{"sequence": "UUCCGAG", "RNAcompete 7-mer binding Z-score": -0.621}
{"sequence": "AUUAAUA", "RNAcompete 7-mer binding Z-score": -0.544}
{"sequence": "GCCAGCU", "RNAcompete 7-mer binding Z-score": -0.413}
{"sequence": "GACAUCC", "RNAcompete 7-mer binding Z-score": -0.683}
{"sequence": "GGGCUAC", "RNAcompete 7-mer binding Z-score": 1.09}
{"sequence": "UAGCUGG", "RNAcompete 7-mer binding Z-score": 0.661}
{"sequence": "AAUAGAC", "RNAcompete 7-mer binding Z-score": -0.0998}
{"sequence": "CGACAGA", "RNAcompete 7-mer binding Z-score": -0.151}
{"sequence": "ACACGAC", "RNAcompete 7-mer binding Z-score": -0.508}
{"sequence": "CCGUAUA", "RNAcompete 7-mer binding Z-score": -0.65}
{"sequence": "AUAGGCA", "RNAcompete 7-mer binding Z-score": 1.38}
{"sequence": "GUCAGCA", "RNAcompete 7-mer binding Z-score": 0.213}
{"sequence": "AGCGCAU", "RNAcompete 7-mer binding Z-score": -0.442}
{"sequence": "CGUCUCG", "RNAcompete 7-mer binding Z-score": -0.653}
{"sequence": "UCUGCUA", "RNAcompete 7-mer binding Z-score": -0.894}
{"sequence": "AGCUAAU", "RNAcompete 7-mer binding Z-score": -0.453}
{"sequence": "AGCACCA", "RNAcompete 7-mer binding Z-score": -0.384}
